# Reference: PubChem BioAssay AID1347417 (National Center for Advancing Translational Sciences (NCATS), 2020)
# The campaign covered roughly 120,000 compounds. About 5,300 (4.4%) were called active. The inconclusive results got no clear call from the source; some entries with a clear call stand among them for comparison. The call rests on the fitted dose curve; in most records, active means well fitted inhibition curve with a large enough effect; inconclusive means small, poorly fitted or top-dose-only effect; inactive means no such curve, though single readings can be large or run the other way. A potency beside an inconclusive call is a rough fit, not a confirmed value.
# Assay: qHTS Primary assay for Inhibitors of Plasmodium falciparum Dd2 growth in vitro; further: nearly all actives have a fitted effect of over 65% in size
# Details: P. falciparum Dd2 growth, SYBR Green, 72 h; series mostly up to 28.9 µM
# Method in brief: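 Readout: SYBR Green fluorescence, 485 nm excitation, 535 nm emission, after ~16 h lysis at 37C. Before that, Dd2-infected red cells (2.5% hematocrit) grew 72 h with compound, 29 uM top final concentration.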
# Potency means the concentration at half of the fitted maximal effect; tags describe the fitted curve by direction and shape.
row,Structure (SMILES),Potency
1,Cc1ccc(OCC(=O)Nc2sc3c(c2C(N)=O)CCCC3)c(C(C)(C)C)c1,"inconclusive: 15.8 µM [inhibitor, single point]"
2,O=C1c2cnc(-c3cc4ccccc4o3)nc2OCCN1Cc1ccccc1,"inconclusive: 1.58 µM [inhibitor, full curve]"
3,Cc1ccc(CNc2ccc3nnc(C4CCC4)n3n2)o1,active: 7.08 µM
4,Cc1ccc(-n2c(SCC(=O)Nc3ccc4c(c3)OCCO4)nc3c([nH]c4ccccc43)c2=O)cc1,"inconclusive: 10 µM [inhibitor, single point]"
5,Cc1ccccc1-c1[nH]nc2ncc(-c3cn[nH]c3)nc12,"inconclusive: 1.58 µM [inhibitor, partial curve, poor fit]"
6,COCc1ccc(C(=O)NCc2cc(C)cc3c(C)c(C)[nH]c23)o1,"inconclusive: 10 µM [inhibitor, single point]"
7,CC(C)c1ccc(NC(=O)Nc2csc3c2CCCC3)cc1,"inconclusive: 12.6 µM [inhibitor, single point]"
8,CCCCN(C)CC(O)Cn1cc(/C=C/C(=O)c2ccc(C)cc2)c2ccccc21 (stereo not given),active: 2.51 µM
9,CCOC(=O)c1ccc(NC(=O)Cn2ncc3c(C)n(Cc4ccccc4F)c(C)c3c2=O)cc1,"inconclusive: 11.2 µM [inhibitor, single point]"
10,Cc1nnc(NC(=O)C2c3ccccc3C(=O)N(Cc3ccccc3)C23CCCC3)s1 (stereo not given),"inconclusive: 11.2 µM [inhibitor, single point]"
11,CCc1ccc(CN2CCN(Cc3ccc(F)c(F)c3)C(CCO)C2)o1 (stereo not given),"inconclusive: 17.8 µM [inhibitor, single point]"
12,COCCN1CCC(N2CCN(S(=O)(=O)c3ccc(OC)c(Cl)c3)CC2)C1=O (stereo not given),inactive
13,CC(C)CCN1CCC(N2CCN(Cc3cccnc3)CC2)C1=O (stereo not given),"inconclusive: 17.8 µM [inhibitor, single point]"
14,O=C(COc1ccccc1)N1CCC([C@@H]2CNC[C@H]2CO)CC1,inactive
15,Cc1cccc(CN2CCCN(S(=O)(=O)c3cn(C)cn3)C(c3ccccc3)CC(=O)NCC2)c1 (stereo not given),"inconclusive: 20 µM [inhibitor, single point]"
16,COc1cccc([S+](=O)([O-])N2CCn3c(nn(-c4ccc(Cl)cc4)c3=O)C2)c1,inactive
17,CN(Cc1ccccc1)[C@H]1[C@H](O)[C@H](CO)O[C@@H]1CNCc1ccc(F)cc1,"inconclusive: 3.98 µM [inhibitor, single point]"
18,Cc1ccc(NC(=O)N2CCC(N3CC4CC(C3)[C@H]3CCCC(=O)N3C4)CC2)cc1F (stereo not given in full),inactive
19,COCCN1CCN(C(=O)CC(c2ccccc2)c2ccc(Cl)cc2)CC1 (stereo not given),"inconclusive: 17.8 µM [inhibitor, single point]"
20,COc1cccc(CN2Cc3cc(NC(=O)c4cccc(OC)c4)ccc3OCC2=O)c1,"inconclusive: 1.58 µM [inhibitor, partial curve, poor fit]"
21,Cc1ccc(N2C(=O)CSC23C(=O)N(CC(=O)NC2CCCCC2)c2ccccc23)cc1C (stereo not given),"inconclusive: 11.2 µM [inhibitor, single point]"
22,O=C(N[C@@H]1CN(Cc2ccccc2F)C[C@H]1CO)c1ccccc1,"inconclusive: 3.16 µM [inhibitor, partial curve, poor fit]"

row,Structure (SMILES),Potency
1,O=C(c1ccc(Br)s1)N(Cc1cccnc1)c1nc2ccc(F)cc2s1,active: 2.51 µM
2,CN(CC(=O)N1CCC(C)(c2noc(C3CC3)n2)CC1)S(=O)(=O)c1ccc2c(c1)oc(=O)n2C,inactive
3,O=C(NC1CCN(c2cc(-c3cccs3)[nH]n2)C1)c1ccc(Br)o1 (stereo not given),inactive
4,Cc1cccc(S(=O)(=O)N2CCCC(Cn3c(C)nc4cccnc43)C2)c1 (stereo not given),"inconclusive: 3.98 µM [inhibitor, partial curve, poor fit]"
5,Cc1cccc(-n2nc(C)c(CCC(=O)N(C)C(C)C)c2Oc2ccc(F)cc2F)c1,inactive
6,CCOc1ccccc1NC(=O)CN1C(=O)COc2ccc(S(=O)(=O)N3CCCCC3)cc21,"inconclusive: 17.8 µM [inhibitor, single point]"
7,Nc1nonc1C(=O)NCCNCc1cccc(Cl)c1Cl,"inconclusive: 17.8 µM [inhibitor, single point]"
8,COc1ccccc1CN1C[C@@H](F)[C@@H](OCc2nc3ccccc3o2)C1,"inconclusive: 5.62 µM [inhibitor, single point]"
9,CCCCN(CC)CCCNC(=O)C1CCCN(c2ncnc3c2nc2n3CCCCC2)C1 (stereo not given),"inconclusive: 17.8 µM [inhibitor, single point]"
10,COc1cccc(N2C(=O)NC(=NC3CCCCC3)C23CCN(C(=O)c2ccc(C)cc2)CC3)c1,"inconclusive: 10 µM [inhibitor, partial curve, poor fit]"
11,O=C1CC(c2ccccc2)N(Cc2ccncc2)CCCN(C(=O)CC2CCCCC2)CCN1 (stereo not given),"inconclusive: 7.94 µM [inhibitor, partial curve, poor fit]"
12,CCN(CC)CCn1c(-c2ccccc2)csc1=Nc1ccccc1,"inconclusive: 4.47 µM [inhibitor, partial curve]"
13,CC1=C[C@@H](CNC(=O)CN(C)C)[C@H](C(C)C)C[C@H]1Cc1nc2ccc(C)cc2[nH]1,"inconclusive: 8.91 µM [inhibitor, partial curve, poor fit]"
14,Cc1noc(C)c1-c1cc2c(cc(C)n2CCN(C)C)c(-c2ccnn2C)n1,"inconclusive: 5.62 µM [inhibitor, single point]"
15,CC(C)c1noc(CC2CCN(C(=O)c3ccc(C(C)(C)C)cc3)CC2)n1,active: 7.94 µM
16,COc1ccc(-c2cc(N3CCC(NC(=O)c4ccc(OC)cc4C)CC3)n[nH]2)cc1,"inconclusive: 3.98 µM [inhibitor, single point]"
17,C[S+](=O)([O-])c1cccc(-c2nccc3c(=O)cc(N4CCOCC4)oc23)c1,"inconclusive: 14.1 µM [inhibitor, partial curve, poor fit]"
18,COc1nccc(N2CC[C@@](O)(C3CCOCC3)[C@H](C)C2)c1C#N,"inconclusive: 8.91 µM [inhibitor, partial curve, poor fit]"
19,COCc1ccc2c(c1)c(OC(C)(C)C(=O)Nc1cccnc1)nn2Cc1ccccc1,"inconclusive: 25.1 µM [inhibitor, partial curve, poor fit]"
20,CNC(=O)c1cc[nH]c1C1CCCN(C(=O)CCc2c(C)n[nH]c2C)C1 (stereo not given),inactive
21,Cc1ccc(CCNC(=O)c2c(C)oc3nc(C)nc(N4CCOCC4)c23)cc1,inactive
22,Cc1ccc(CCNC(=O)c2cc3c(N4CCCC4)nc(C)cn3n2)cc1,inactive

row,Structure (SMILES),Potency
1,O=C(NC1CCCCC1)[C@@H]1C[C@@H](O)CN1C1CCN(C(=O)c2cccs2)CC1,"inconclusive: 10 µM [inhibitor, single point]"
2,O=c1[nH]c(N2CCOCC2)nc2c1CCN(Cc1ccc(F)cc1Cl)CC2,"inconclusive: 0.447 µM [inhibitor, partial curve, poor fit]"
3,CCN(CCCNC(=O)c1cc(Nc2ccc(OC)cc2OC)nc2ccccc12)c1cccc(C)c1,"inconclusive: 12.6 µM [inhibitor, single point]"
4,O=C(c1ccco1)N1CCN(C(=O)c2cc3c(s2)CN(C2CC2)C3)CC1,"inconclusive: 7.08 µM [inhibitor, partial curve, poor fit]"
5,Cc1ccc(-n2ncc3c(N(CC(C)C)CC(C)C)ncnc32)c(C)c1,"inconclusive: 17.8 µM [inhibitor, single point]"
6,Cc1ccc(NC(=O)c2c(C)oc3ccc(O)c(CN4CCCCCC4)c23)cc1,active: 0.631 µM
7,Cc1cnc(C(=O)N[C@@H]2CCC[C@@H]2C(=O)NCc2c(C)n[nH]c2C)cn1,inactive
8,Cc1cnc(C(=O)N2CCCCCCN(C)C(=O)[C@@H]3CCC[C@@H]32)cn1,inactive
9,O=C(CC1=C2CCCCC2N(Cc2ccc(F)cc2)C1=O)NCCc1c[nH]c2ccccc12 (stereo not given),"inconclusive: 11.2 µM [inhibitor, partial curve, poor fit]"
10,Cc1c(CC(=O)NCCc2ccccc2F)c(=O)oc2cc(O)c(Cl)cc12,"inconclusive: 17.8 µM [inhibitor, single point]"
11,CC(C)(C(=O)N1CCN(Cc2ccccc2)CC(O)C1)c1ccccc1 (stereo not given),"inconclusive: 0.158 µM [inhibitor, full curve, poor fit]"
12,CC(C)CN1C(=O)CO[C@H](c2ccc(NC(=O)c3ccc(C(F)(F)F)cc3)cc2)[C@H]1CO,inactive
13,Cc1nonc1C1CCCN1c1ccc(-c2nc(COc3ccccc3)no2)cn1 (stereo not given),"inconclusive: 17.8 µM [inhibitor, single point]"
14,N[C@@H]1CC[C@H](C(=O)NCc2csc(N3CCCC3)n2)C1,active: 11.2 µM
15,CN(C)CCCNC(=O)c1c(OCC2CC2)cc(=O)n2c1CCCCC2,inactive
16,C[C@]1(O)CCN(C(=O)c2cnn3cc(CCO)cnc23)C[C@@H]1O,inactive
17,CCOC(=O)CCNC(=O)N1CCCN(C(=O)C2CC2)C(c2ccccc2)CC(=O)NCC1 (stereo not given),inactive
18,Cc1nnc([C@@H]2CC(F)(F)CN2C(=O)COc2ccccc2)o1,"inconclusive: 10 µM [inhibitor, single point]"
19,O=C1CCN(S(=O)(=O)c2cccc(F)c2)CCCC(c2nc(-c3cccnc3)no2)CCN1 (stereo not given),inactive
20,Cc1cc(Cl)ccc1-c1ccccc1CN,active: 8.91 µM
21,COc1ccc(-n2nc(C3CCN([S+](=O)([O-])c4cccc(C(F)(F)F)c4)CC3)[nH]c2=O)cc1,"inconclusive: 0.562 µM [inhibitor, full curve]"
